We go through one molecule from article PMC6042961.

These are yes or no findings as the source states them, for the method shown. In cells and extracts the contact can be indirect. Some binding calls cover weakened binding; strength is not graded here. Sequences can lack the tags named with a protein.

Assay [1] has as its target T1, mouse iRhom2^cub-3xHA (mouse) (UniProt Q80WQ6).
T1 sequence: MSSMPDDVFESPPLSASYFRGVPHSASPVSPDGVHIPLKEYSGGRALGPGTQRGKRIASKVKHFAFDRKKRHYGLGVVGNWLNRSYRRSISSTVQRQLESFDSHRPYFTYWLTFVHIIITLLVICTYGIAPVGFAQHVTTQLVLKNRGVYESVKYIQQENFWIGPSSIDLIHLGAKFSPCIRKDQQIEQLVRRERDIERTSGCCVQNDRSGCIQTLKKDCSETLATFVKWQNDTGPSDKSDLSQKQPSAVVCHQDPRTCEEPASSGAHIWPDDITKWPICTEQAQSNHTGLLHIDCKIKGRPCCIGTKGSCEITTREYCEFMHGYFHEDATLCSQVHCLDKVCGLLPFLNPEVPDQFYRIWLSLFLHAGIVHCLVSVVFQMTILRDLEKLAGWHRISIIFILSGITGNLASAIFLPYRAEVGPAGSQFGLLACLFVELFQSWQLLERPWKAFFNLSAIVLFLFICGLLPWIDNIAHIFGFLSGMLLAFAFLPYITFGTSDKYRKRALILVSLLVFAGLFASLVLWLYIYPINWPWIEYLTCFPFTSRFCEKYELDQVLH
The assay is described as follows: co-IP; lysates in 1% Triton X-100, 150 mM NaCl, 50 mM Tris-HCl pH 7.5; anti-HA or anti-V5 magnetic beads 1 hr at 4°C; wash with 300 mM NaCl; western blot; HEK293T cells (wild type, ADAM17 KO, FRMD8 KO, or iRhom1/2 DKO reconstituted with iRhom2^WT-3xHA; with or without 200 nM PMA for 30 min).

Assay [2] addresses T2, human iRhom2^Δ200-3xHA (human) (UniProt Q6PJF5).
T2 sequence: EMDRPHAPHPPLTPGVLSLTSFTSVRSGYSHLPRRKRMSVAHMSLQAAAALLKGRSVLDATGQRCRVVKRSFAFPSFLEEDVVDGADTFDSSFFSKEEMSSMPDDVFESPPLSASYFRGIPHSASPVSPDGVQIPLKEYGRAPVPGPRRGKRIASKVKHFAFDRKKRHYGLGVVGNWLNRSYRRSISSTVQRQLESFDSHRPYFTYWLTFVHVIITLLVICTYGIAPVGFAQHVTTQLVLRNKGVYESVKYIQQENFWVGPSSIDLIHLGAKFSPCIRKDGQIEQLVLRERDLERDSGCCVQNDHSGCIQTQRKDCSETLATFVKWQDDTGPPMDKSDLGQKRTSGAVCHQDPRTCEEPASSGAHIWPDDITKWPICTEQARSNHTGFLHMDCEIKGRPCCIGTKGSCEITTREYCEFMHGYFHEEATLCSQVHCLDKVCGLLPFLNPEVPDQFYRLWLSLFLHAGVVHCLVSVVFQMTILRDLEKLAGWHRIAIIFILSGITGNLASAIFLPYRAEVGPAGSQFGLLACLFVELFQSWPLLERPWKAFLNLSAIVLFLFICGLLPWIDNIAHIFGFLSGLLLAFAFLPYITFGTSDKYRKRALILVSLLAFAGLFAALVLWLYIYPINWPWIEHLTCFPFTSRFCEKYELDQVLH
The description is as above.

B1: human FRMD8-V5 (protein, UniProt Q9BZ67-1 1-464)
chain: MDGTEGSAGQPGPAERSHRSSVSSVGARAADVLVYLADDTVVPLAVENLPSLSAHELHRAVREVLQLPDIALDVFALWLVSPLLEVQLKPKHQPYKLGRQWPELLLRFTSAPDDDVAMDEPFLQFRRNVFFPKRRELQIHDEEVLRLLYEEAKGNVLAARYPCDVEDCEALGALVCRVQLGPYQPGRPAACDLREKLDSFLPAHLCKRGQSLFAALRGRGARAGPGEQGLLNAYRQVQEVSSDGGCEAALGTHYRAYLLKCHELPFYGCAFFHGEVDKPAQGFLHRGGRKPVSVAISLEGVHVIDSREKHVLLGLRFQELSWDHTSPEEEEPILWLEFDGDSEGTPVNKLLKIYSKQAELMSSLIEYCIELSQAAEPAGPQDSATGSPSDPSSSLAPVQRPKLRRQGSVVSSRIQHLSTIDYVEDGKGIRRVKPKRTTSFFSRQLSLGQGSYTVVQPGDSLEQG
Turning to B1, the binding result in assay [1] is recorded as “no binding”; in assay [2], “binds”.
